Data published in paper PMC6006248, “CARK1 mediates ABA signaling by phosphorylation of ABA receptors” (Cell Discovery, 2018).
No constants are given. Whether binding was seen depends on the method and setting. For part of these data: In cells and extracts the contact can be indirect. Some entries that bind do so weakly or less than the wild type. For part of these data: Sequences can lack the tags named with a protein. Each block holds one molecule with its values, some of them ahead of it.

The chains behind the UniProt entries cited, without tags or fusion partners.
UniProt O49686: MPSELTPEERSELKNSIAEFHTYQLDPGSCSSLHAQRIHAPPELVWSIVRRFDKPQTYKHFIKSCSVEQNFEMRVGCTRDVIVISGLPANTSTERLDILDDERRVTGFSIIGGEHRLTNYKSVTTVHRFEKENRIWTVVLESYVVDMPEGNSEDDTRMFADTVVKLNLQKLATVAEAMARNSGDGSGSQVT

Assays:
[1] = target: T1, HA-tagged CARK1 (full-length) (Arabidopsis) (UniProt Q9LUT0); assay: co-IP; HA-tagged CARK1/CARK1^N204A and Flag-tagged RCAR3/RCAR11 co-transfected into wild-type Arabidopsis protoplasts; Anti-HA Magnetic Beads; 50 mM Tris pH 7.5, 150 mM NaCl, 5 mM EDTA, 1% Triton X-100; blot with anti-Flag and anti-HA
T1 sequence: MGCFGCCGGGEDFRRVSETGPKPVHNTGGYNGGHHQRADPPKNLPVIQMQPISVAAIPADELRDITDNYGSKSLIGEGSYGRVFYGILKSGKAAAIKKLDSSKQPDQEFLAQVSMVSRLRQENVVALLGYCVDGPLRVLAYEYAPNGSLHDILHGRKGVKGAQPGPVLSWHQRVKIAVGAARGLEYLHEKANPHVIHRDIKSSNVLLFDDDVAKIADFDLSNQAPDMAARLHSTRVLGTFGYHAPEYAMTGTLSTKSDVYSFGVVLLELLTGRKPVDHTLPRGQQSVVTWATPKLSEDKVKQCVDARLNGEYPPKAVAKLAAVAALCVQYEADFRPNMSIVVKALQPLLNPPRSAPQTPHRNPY

[2] = target: T2, HA-tagged CARK1^N204A (Arabidopsis) (UniProt Q9LUT0); assay: as above
T2 sequence: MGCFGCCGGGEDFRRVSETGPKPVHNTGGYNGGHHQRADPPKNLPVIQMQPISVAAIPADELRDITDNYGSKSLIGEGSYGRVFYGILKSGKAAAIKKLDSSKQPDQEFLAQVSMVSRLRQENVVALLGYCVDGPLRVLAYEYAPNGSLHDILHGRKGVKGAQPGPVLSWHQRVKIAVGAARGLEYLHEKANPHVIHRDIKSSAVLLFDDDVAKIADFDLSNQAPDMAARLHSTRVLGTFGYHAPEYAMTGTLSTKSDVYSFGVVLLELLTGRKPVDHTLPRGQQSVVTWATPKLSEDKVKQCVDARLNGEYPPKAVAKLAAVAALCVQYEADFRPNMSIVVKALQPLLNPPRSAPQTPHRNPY

[3] = target: T3, GST-tagged RCAR3 (Arabidopsis) (UniProt Q9FGM1); assay: condition: up to 200 μg of His-tagged CARK1-KD^N204A with 100 μg of GST-tagged RCAR3; pull-down; GST pull-down; His-tagged CARK1-KD or CARK1-KD^N204A (50, 100 and 200 μg) incubated with 100 μg of GST-tagged RCAR3 or RCAR11; SDS-PAGE and immunoblot; both purified
T3 sequence: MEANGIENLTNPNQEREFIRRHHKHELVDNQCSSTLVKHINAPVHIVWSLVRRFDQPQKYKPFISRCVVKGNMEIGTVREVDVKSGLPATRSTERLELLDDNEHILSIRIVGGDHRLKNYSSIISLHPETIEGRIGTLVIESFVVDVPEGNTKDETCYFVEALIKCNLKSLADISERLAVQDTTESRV

[4] = target: GST-tagged RCAR11 (Arabidopsis) (UniProt O49686); assay: condition: up to 200 μg of His-tagged CARK1-KD^N204A with 100 μg of GST-tagged RCAR11; pull-down; GST pull-down; His-tagged CARK1-KD or CARK1-KD^N204A (50, 100 and 200 μg) incubated with 100 μg of GST-tagged RCAR3 or RCAR11; SDS-PAGE and immunoblot; both purified
[5] = target: RCAR11 (PYR1), two-hybrid bait (Arabidopsis) (UniProt O49686); assay: two-hybrid; MatchMaker GAL4 Two-Hybrid System 3; RCARs as bait in pGBKT7, CARK1C as prey in pGADT7 (library clones in pGADT7-Rec); 10 μM ABA added to the indicated medium to test its effect
[6] = target: T4, RCAR14 (PYL2), two-hybrid bait (Arabidopsis) (UniProt O80992); assay: as above
T4 sequence: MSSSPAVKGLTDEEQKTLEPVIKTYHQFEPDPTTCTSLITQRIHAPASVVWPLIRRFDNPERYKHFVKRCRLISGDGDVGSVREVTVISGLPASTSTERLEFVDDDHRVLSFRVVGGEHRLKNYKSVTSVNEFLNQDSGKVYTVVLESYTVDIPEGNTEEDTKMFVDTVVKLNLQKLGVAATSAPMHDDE

[7] = target: T5, RCAR3 (PYL8), two-hybrid bait (Arabidopsis) (UniProt Q9FGM1); assay: as above
T5 sequence: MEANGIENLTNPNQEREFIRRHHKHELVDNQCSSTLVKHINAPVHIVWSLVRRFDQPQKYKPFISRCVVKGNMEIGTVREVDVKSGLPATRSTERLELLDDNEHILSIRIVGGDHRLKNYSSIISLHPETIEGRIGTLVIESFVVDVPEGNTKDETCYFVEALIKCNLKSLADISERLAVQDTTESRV

[8] = target: T6, RCAR7 (PYL13), two-hybrid bait (Arabidopsis) (UniProt Q9SN51); assay: as above
T6 sequence: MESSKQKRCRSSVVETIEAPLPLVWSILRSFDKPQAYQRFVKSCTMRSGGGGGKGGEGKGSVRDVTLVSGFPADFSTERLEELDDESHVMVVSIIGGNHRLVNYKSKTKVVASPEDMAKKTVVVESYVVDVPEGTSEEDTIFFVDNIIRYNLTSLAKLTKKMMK

[9] = target: cYFP-RCAR11 (Arabidopsis) (UniProt O49686); assay: split reporter; BiFC with nYFP and cYFP fusions co-expressed in leaves of N. benthamiana; confocal microscopy
cYFP-RCAR3 (Arabidopsis) = target: T7, cYFP-RCAR3 (Arabidopsis) (UniProt Q9FGM1); assay: as above
T7 sequence: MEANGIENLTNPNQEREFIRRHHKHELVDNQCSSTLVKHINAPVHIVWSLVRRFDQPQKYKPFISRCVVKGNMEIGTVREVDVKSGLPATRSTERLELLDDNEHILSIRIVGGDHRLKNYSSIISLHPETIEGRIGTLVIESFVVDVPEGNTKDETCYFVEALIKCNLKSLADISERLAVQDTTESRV

B2: His-tagged CARK1-KD^N204A (domain or fragment, UniProt Q9LUT0 50-353)
chain: QPISVAAIPADELRDITDNYGSKSLIGEGSYGRVFYGILKSGKAAAIKKLDSSKQPDQEFLAQVSMVSRLRQENVVALLGYCVDGPLRVLAYEYAPNGSLHDILHGRKGVKGAQPGPVLSWHQRVKIAVGAARGLEYLHEKANPHVIHRDIKSSAVLLFDDDVAKIADFDLSNQAPDMAARLHSTRVLGTFGYHAPEYAMTGTLSTKSDVYSFGVVLLELLTGRKPVDHTLPRGQQSVVTWATPKLSEDKVKQCVDARLNGEYPPKAVAKLAAVAALCVQYEADFRPNMSIVVKALQPLLNPPR
- binding [3]: no binding
- binding [4]: no binding

B3: CARK1C (amino acid residues 290-364 of CARK1), two-hybrid prey (domain or fragment, UniProt Q9LUT0 290-364)
chain: WATPKLSEDKVKQCVDARLNGEYPPKAVAKLAAVAALCVQYEADFRPNMSIVVKALQPLLNPPRSAPQTPHRNPY
- binding [5]: binds
- binding [6]: no binding
- binding [7]: binds
- binding [8]: no binding

Continued, values first:

- binding [1]: binds
- binding [2]: no binding
Molecule: Flag-tagged RCAR11 (from UniProt O49686 1-191) (receptor)

- binding [1]: binds
- binding [2]: no binding
B1: Flag-tagged RCAR3 (receptor, UniProt Q9FGM1 1-188)
chain: MEANGIENLTNPNQEREFIRRHHKHELVDNQCSSTLVKHINAPVHIVWSLVRRFDQPQKYKPFISRCVVKGNMEIGTVREVDVKSGLPATRSTERLELLDDNEHILSIRIVGGDHRLKNYSSIISLHPETIEGRIGTLVIESFVVDVPEGNTKDETCYFVEALIKCNLKSLADISERLAVQDTTESRV

- binding [9]: binds
- binding (cYFP-RCAR3 (Arabidopsis)): binds
B4: CARK1-nYFP (enzyme, UniProt Q9LUT0 1-364)
chain: MGCFGCCGGGEDFRRVSETGPKPVHNTGGYNGGHHQRADPPKNLPVIQMQPISVAAIPADELRDITDNYGSKSLIGEGSYGRVFYGILKSGKAAAIKKLDSSKQPDQEFLAQVSMVSRLRQENVVALLGYCVDGPLRVLAYEYAPNGSLHDILHGRKGVKGAQPGPVLSWHQRVKIAVGAARGLEYLHEKANPHVIHRDIKSSNVLLFDDDVAKIADFDLSNQAPDMAARLHSTRVLGTFGYHAPEYAMTGTLSTKSDVYSFGVVLLELLTGRKPVDHTLPRGQQSVVTWATPKLSEDKVKQCVDARLNGEYPPKAVAKLAAVAALCVQYEADFRPNMSIVVKALQPLLNPPRSAPQTPHRNPY
